Laboratory results reported in patent publication US20190031729A1 (Pieris, published 2019).

Tests used:
[1] = biological target: T1, human LAG-3 (huLAG-3) on cells (human, UniProt P18627 23-525); assay: FACS on CHO cells stably transfected with huLAG-3
T1 construct: whole, on cells; also called CHO-huLAG-3; CHO::huLAG-3
T1 sequence (looked up): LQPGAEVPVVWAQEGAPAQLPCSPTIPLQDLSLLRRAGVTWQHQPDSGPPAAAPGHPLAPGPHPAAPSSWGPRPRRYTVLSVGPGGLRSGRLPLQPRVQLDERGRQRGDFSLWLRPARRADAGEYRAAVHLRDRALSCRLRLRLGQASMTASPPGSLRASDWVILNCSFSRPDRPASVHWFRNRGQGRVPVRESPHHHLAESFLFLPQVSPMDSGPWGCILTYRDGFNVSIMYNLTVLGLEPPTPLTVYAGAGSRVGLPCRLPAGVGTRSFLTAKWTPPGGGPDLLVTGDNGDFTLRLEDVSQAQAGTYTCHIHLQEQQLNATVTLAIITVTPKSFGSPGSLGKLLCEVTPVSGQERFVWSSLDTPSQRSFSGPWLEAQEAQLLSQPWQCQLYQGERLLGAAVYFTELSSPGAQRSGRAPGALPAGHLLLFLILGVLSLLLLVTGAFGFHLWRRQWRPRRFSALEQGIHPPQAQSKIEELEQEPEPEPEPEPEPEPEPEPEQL

[2] = biological target: T2, huLAG-3-Fc (human LAG-3 extracellular domain fused to human IgG1 Fc fragment), R&D Systems (human, UniProt P18627 23-450); assay: competition FACS: 3 nM huLAG-3-Fc binding to MHC class II on A375 cells, blocked ligand MHC class II; the legend entry SEQ ID NO: 3 has lost its marker, the asterisk curve is the only one left over
T2 construct: extracellular domain; Bought from R&D Systems; also called human LAG-3-Fc fusion; recombinant human LAG-3-Fc; not shown: human IgG1 Fc fragment
T2 sequence (looked up): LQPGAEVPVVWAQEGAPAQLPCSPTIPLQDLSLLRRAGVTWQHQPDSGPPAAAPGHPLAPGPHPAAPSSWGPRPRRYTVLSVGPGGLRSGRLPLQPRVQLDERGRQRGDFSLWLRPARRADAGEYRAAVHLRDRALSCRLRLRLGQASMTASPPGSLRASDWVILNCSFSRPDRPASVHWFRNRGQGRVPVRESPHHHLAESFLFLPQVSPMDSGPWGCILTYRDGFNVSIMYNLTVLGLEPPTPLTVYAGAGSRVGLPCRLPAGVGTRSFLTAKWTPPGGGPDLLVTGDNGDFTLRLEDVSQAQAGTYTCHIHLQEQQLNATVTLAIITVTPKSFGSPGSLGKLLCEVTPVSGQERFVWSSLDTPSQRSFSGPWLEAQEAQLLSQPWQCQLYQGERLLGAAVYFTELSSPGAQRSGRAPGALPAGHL
Description: Cells were washed twice in ice-cold PBS, re-suspended in PBS-FCS and incubated 30 min on ice with phycoerythrin labelled anti-human IgG Fc antibody (Jackson Immunologics).

B1: negative control lipocalin mutein (SEQ ID NO: 3) (designed binder)
chain: ASDEEIQDVSGTWYLKAMTVDRECPEMNLESVTPMTLTTLEGGNLEAKVTMLISGRSQEVKAVLEKTDEPGKYTADGGKHVAYIIRSHVKDHYIFYSEGECHGKPVPGVWLVGRDPKNNLEALEDFEKAAGARGLSTESILIPRQSETSSPG
notes: hTlc-derived negative control; also called negative-control protein
- binding result [1]: no binding
- binding result [2]: no binding (tested: 5000 nM)
